# The list shows a part of the results.
# B1: CC1G-10077 (Coprinopsis cinerea), A8NDT7 (protein)
# chain: MALNEGVYWIRNSRFTNKVLDLDAANVAKGTSILDFNEHGTFNENHNQLWIVERFQSRDTYLIRSVHSNLVLDLSQGLSANGTPILCWTQHGGTNQQWRIEWVKDDNKTPLYRIVSVATGTAISHNEDDSSAYTVAWSVDDGPKQLWSFDPFVTPLLYRLRVKSTSRVLDLAAASADNGTLALAWEQHTAITKRNQLWWLPYRSGAEEYTIQCLETSTVADLSGGNSGNGTPIYGWQSHGGRNQQWKFEPTSDSGDYYHIKNVEGGSVMDAYMNDSQKRVGGWSNNGGDNQKWLLDPLPSPGPGWVLIQNGGTGKFLCSTPSGDIGTADGPETVYDYSVQWRFIQREYTGVYHVVNRATGAYLRQIGTSMPSIGLAEENDDELKDWWMLETYDNSEIGLASIISRWTGNVLDHYGGVSVQALDNNTENSYRSWAIIPARDWLTSFSLVNGQGGLCLAAQYAREETRLSTTANVNDFHAQWVFRKPSGSSGYTIQNKYNNHYVGGTSARWELVVCCNKYFGIRNTSTQKYLAIEDGQVTFQDQDMTDRKQCWELCSGRATDTSGNDYDLIYMDDDLLEVMIPWVGDKQGDLKHYIEKRATKKPPKDKGGWQLPAAGLIKKPKFNDIRQLLQELIEQWEWDVVNEEREQIQTLVSIDEAEARRLLGRRPHPDIVAAYQRSRSSTLFRIDRQGYFNIAGDRYVNIQGQYGDDSYFHIALPVGVRFGREQIRRFLRDSLDRSTSVTITPTTCKPPSGGPDYNRDPDSDGDNSWIKWTIAVVGTSAIKHSEL
# Legend:
# Assay in all cases: glycan array binding signal (z-score within array); higher = stronger binding
# Conditions in all cases: glycan notation: IUPAC condensed, linker removed
# [1] = target: GlcNAc(b1-3)Gal(b1-4)GlcNAc(b1-3)Gal(b1-4)GlcNAc(b1-3)Gal(b1-4)GlcNAc(b1-3)Gal(b1-4)GlcNAc(b1-2)[GlcNAc(b1-3)Gal(b1-4)GlcNAc(b1-3)Gal(b1-4)GlcNAc(b1-3)Gal(b1-4)GlcNAc(b1-3)Gal(b1-4)GlcNAc(b1-6)]Man(a1-6)[GlcNAc(b1-3)Gal(b1-4)GlcNAc(b1-3)Gal(b1-4)GlcNAc(b1-3)Gal(b1-4)GlcNAc(b1-3)Gal(b1-4)GlcNAc(b1-2)Man(a1-3)]Man(b1-4)GlcNAc(b1-4)[Fuc(a1-6)]GlcNAc
# How it was run: (§1)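 Columns mapping to the same glycan were averaged after glycan names were converted to IUPAC-condensed notation. The data come from 3228 arrays in the Consortium for Functional Glycomics database, limited to those with an available protein sequence. Binding is reported as a within-array Z-score averaged across arrays of one protein sequence and across linkers.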
# [2] = target: GlcNAc(b1-3)Gal(b1-4)GlcNAc(b1-3)Gal(b1-4)GlcNAc(b1-3)GalNAc
# How it was run: as §1
# [3] = target: GlcNAc(b1-3)Gal(b1-4)GlcNAc(b1-3)GalNAc
# How it was run: as §1
# [4] = target: GlcNAc(b1-3)Gal(b1-4)GlcNAc(b1-3)[GlcNAc(b1-3)Gal(b1-4)GlcNAc(b1-3)]GalNAc
# How it was run: as §1
# [5] = target: GlcNAc(b1-3)Gal(b1-4)GlcNAc(b1-6)[Gal(b1-3)]GalNAc
# How it was run: as §1
# [6] = target: GlcNAc(b1-3)Gal(b1-4)GlcNAc(b1-6)[GlcNAc(b1-3)Gal(b1-3)]GalNAc
# How it was run: as §1
# [7] = target: GlcNAc(b1-3)Gal(b1-4)GlcNAc(b1-6)[GlcNAc(b1-3)]Gal(b1-4)GlcNAc
# How it was run: as §1
# GlcNAc(b1-3)GalNAc = target: GlcNAc(b1-3)GalNAc
# How it was run: as §1
# GlcNAc(b1-3)Man = target: GlcNAc(b1-3)Man
# How it was run: as §1
# [8] = target: GlcNAc(b1-3)[GlcNAc(b1-4)][GlcNAc(b1-6)]GlcNAc
# How it was run: as §1
# [9] = target: GlcNAc(b1-3)[GlcNAc(b1-6)]Gal(b1-4)GlcNAc
# How it was run: as §1
# [10] = target: GlcNAc(b1-3)[GlcNAc(b1-6)]GalNAc
# How it was run: as §1
# [11] = target: GlcNAc(b1-4)Gal(b1-4)GlcNAc
# How it was run: as §1
# GlcNAc(b1-4)GlcNAc = target: GlcNAc(b1-4)GlcNAc
# How it was run: as §1
# [12] = target: GlcNAc(b1-4)GlcNAc(b1-4)GlcNAc
# How it was run: as §1
# [13] = target: GlcNAc(b1-4)GlcNAc(b1-4)GlcNAc(b1-4)GlcNAc(b1-4)GlcNAc
# How it was run: as §1
# [14] = target: GlcNAc(b1-4)GlcNAc(b1-4)GlcNAc(b1-4)GlcNAc(b1-4)GlcNAc(b1-4)GlcNAc
# How it was run: as §1
# [15] = target: GlcNAc(b1-4)[GlcNAc(b1-6)]GalNAc
# How it was run: as §1
# [16] = target: GlcNAc(b1-6)Gal(b1-4)GlcNAc
# How it was run: as §1
# GlcNAc(b1-6)GalNAc = target: GlcNAc(b1-6)GalNAc
# How it was run: as §1
# [17] = target: GlcNAc6S(b1-3)Gal(b1-4)GlcNAc
# How it was run: as §1
# Kdn(a2-3)Gal(b1-3)GalNAc = target: Kdn(a2-3)Gal(b1-3)GalNAc
# How it was run: as §1
# Kdn(a2-3)Gal(b1-3)GlcNAc = target: Kdn(a2-3)Gal(b1-3)GlcNAc
# How it was run: as §1
# Kdn(a2-3)Gal(b1-4)Glc = target: Kdn(a2-3)Gal(b1-4)Glc
# How it was run: as §1
# Kdn(a2-3)Gal(b1-4)GlcNAc = target: Kdn(a2-3)Gal(b1-4)GlcNAc
# How it was run: as §1
# [18] = target: Kdn(a2-3)Gal(b1-4)[Fuc(a1-3)]GlcNAc
# How it was run: as §1
# Kdn(a2-6)Gal(b1-4)GlcNAc = target: Kdn(a2-6)Gal(b1-4)GlcNAc
# How it was run: as §1
# [19] = target: Man(a1-2)Man(a1-2)Man(a1-3)Man
# How it was run: as §1
# [20] = target: Man(a1-2)Man(a1-2)Man(a1-6)[Man(a1-3)]Man
# How it was run: as §1
# Man(a1-2)Man(a1-3)Man = target: Man(a1-2)Man(a1-3)Man
# How it was run: as §1
binder,measurement,setting,value
B1,glycan array binding signal (z-score),[1],0.422
same,glycan array binding signal (z-score),[2],-0.45
same,glycan array binding signal (z-score),[3],-0.445
same,glycan array binding signal (z-score),[4],0.052
same,glycan array binding signal (z-score),[5],0.189
same,glycan array binding signal (z-score),[6],-0.388
same,glycan array binding signal (z-score),[7],-0.257
same,glycan array binding signal (z-score),GlcNAc(b1-3)GalNAc,-0.438
same,glycan array binding signal (z-score),GlcNAc(b1-3)Man,-0.513
same,glycan array binding signal (z-score),[8],-0.446
same,glycan array binding signal (z-score),[9],-0.365
same,glycan array binding signal (z-score),[10],-0.385
same,glycan array binding signal (z-score),[11],-0.419
same,glycan array binding signal (z-score),GlcNAc(b1-4)GlcNAc,-0.479
same,glycan array binding signal (z-score),[12],-0.467
same,glycan array binding signal (z-score),[13],-0.453
same,glycan array binding signal (z-score),[14],-0.491
same,glycan array binding signal (z-score),[15],-0.514
same,glycan array binding signal (z-score),[16],3.18
same,glycan array binding signal (z-score),GlcNAc(b1-6)GalNAc,2.95
same,glycan array binding signal (z-score),[17],2.55
same,glycan array binding signal (z-score),Kdn(a2-3)Gal(b1-3)GalNAc,-0.401
same,glycan array binding signal (z-score),Kdn(a2-3)Gal(b1-3)GlcNAc,-0.443
same,glycan array binding signal (z-score),Kdn(a2-3)Gal(b1-4)Glc,-0.5
same,glycan array binding signal (z-score),Kdn(a2-3)Gal(b1-4)GlcNAc,-0.466
same,glycan array binding signal (z-score),[18],-0.47
same,glycan array binding signal (z-score),Kdn(a2-6)Gal(b1-4)GlcNAc,-0.404
same,glycan array binding signal (z-score),[19],-0.448
same,glycan array binding signal (z-score),[20],-0.51
same,glycan array binding signal (z-score),Man(a1-2)Man(a1-3)Man,-0.485
